{
  "source": "patent US20090291088A1",
  "about": "(Biogen, published 2009)",
  "binders": {"B1": {"name": "human IGF-1 His (ligand)", "chain": "not shown"}},
  "biological_target": "T1, human IGF-1R(1-903)-Fc (human, UniProt P08069 31-933)",
  "T1 construct": "Made by Biogen Idec; Multimerises through IGF-1R and Fc; also called hIGF-1R-Fc; IGF-1R-Fc; not shown: C-terminal human IgG1-Fc tag",
  "test": "ELISA, titration of IGF-1 His with and without saturating M13-C06",
  "data": [
    {"binder": "B1", "values": [
      {"measurement": "fold loss in affinity in the presence of M13-C06", "value": "~50", "unit": "fold"}
    ]}
  ]
}
